Source: PubChem BioAssay AID588591 (National Center for Advancing Translational Sciences (NCATS), 2011)
Among all 390,000 compounds or so, about 4,700 (1.2%) were called active. The shares of active, inactive and inconclusive entries below differ from those in the screen. Calls follow the shape of the dose curve; as a rule, active = well fitted inhibition curve with a large enough effect; inconclusive = small, poorly fitted or top-dose-only effect, or another doubt; inactive = no such curve, though single readings can be large or run the other way. A potency beside an inconclusive call is a rough fit, not a confirmed value.

Target: DNA polymerase eta (Homo sapiens) (UniProt Q9Y253)
Experiment: qHTS for Inhibitors of Polymerase Eta
Conditions: recombinant Pol eta, fluorescent DNA replication assay; series mostly up to 114 µM; activity change, negative = inhibition: at the top concentration
Procedure, shortened: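 Pol eta (10 nM) was preincubated with compounds for 15 min at room temperature, after which fluorescent replication substrate (50 nM final) was added to start the reaction. Fluorescence was read kinetically at 0 and 10 min.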
% is scaled to controls: 0 for no effect and ±100 for the full control effect; potency is read from the fitted curve at half-maximal effect; tags tell the direction and shape of the fitted curve.

Sequence of UniProt Q9Y253 (Q9Y253 whole entry, looked up): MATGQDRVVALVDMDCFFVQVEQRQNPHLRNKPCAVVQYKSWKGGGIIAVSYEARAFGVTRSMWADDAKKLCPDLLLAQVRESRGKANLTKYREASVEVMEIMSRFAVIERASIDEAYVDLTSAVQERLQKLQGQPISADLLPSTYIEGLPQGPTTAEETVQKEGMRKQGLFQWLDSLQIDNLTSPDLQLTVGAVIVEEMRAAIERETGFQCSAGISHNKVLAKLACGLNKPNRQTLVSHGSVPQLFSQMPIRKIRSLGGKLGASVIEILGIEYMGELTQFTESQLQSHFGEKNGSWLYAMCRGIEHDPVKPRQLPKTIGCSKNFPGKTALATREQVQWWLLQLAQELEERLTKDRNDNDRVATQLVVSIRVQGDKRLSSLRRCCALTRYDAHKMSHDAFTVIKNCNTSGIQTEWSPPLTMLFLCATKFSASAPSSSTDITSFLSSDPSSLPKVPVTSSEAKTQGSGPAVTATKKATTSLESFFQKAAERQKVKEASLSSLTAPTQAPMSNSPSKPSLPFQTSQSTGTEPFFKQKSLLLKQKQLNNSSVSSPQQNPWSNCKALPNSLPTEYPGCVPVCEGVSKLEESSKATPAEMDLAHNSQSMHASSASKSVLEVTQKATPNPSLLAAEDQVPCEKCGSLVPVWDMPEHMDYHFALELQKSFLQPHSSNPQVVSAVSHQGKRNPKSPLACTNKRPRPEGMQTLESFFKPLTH

Structure (SMILES)	Potency	activity change, negative = inhibition
NCCOc1ccc(C23CC4CC(CC(C4)C2)C3)cc1	inconclusive: 89.1 µM [inhibitor, partial curve, poor fit]	–
Nc1n[nH]c(C2CC2)c1N=Nc1ccc(Cl)cc1	inconclusive: 79.4 µM [inhibitor, partial curve, poor fit]	–
NC(=O)c1cc([N+](=O)[O-])ccc1Nc1ccccc1	inconclusive: 79.4 µM [inhibitor, partial curve, poor fit]	–
Cc1cc(/C=C\c2nc(O)c([N+](=O)[O-])c(=O)[nH]2)c(C)n1-c1ccccc1	active: 22.4 µM	–
N#C/C(=C(/O)COC(=O)COc1ccc(Cl)cc1)c1nc2ccccc2[nH]1	inconclusive: 35.5 µM [inhibitor, partial curve, poor fit]	–
O=C(N/N=C/c1cc2cc3c(cc2nc1Cl)OCCO3)c1ccccc1O	inconclusive: 22.4 µM [inhibitor, partial curve, poor fit]	–
Nc1nc(COc2ccc(F)cc2Cl)nc(N2CCCCC2)n1	inconclusive: 39.8 µM [inhibitor, partial curve, poor fit]	–
COc1cccc(COC(=O)c2sc3nc4n(c(=O)c3c2C)CCC4)c1OC	inconclusive: 11.2 µM [inhibitor, partial curve, poor fit]	–
CCN(CC(=O)Nc1c(F)cccc1F)C(=O)/C=C/c1ccc2ccccc2n1	active: 1.12 µM	–
COc1cccc(-c2nc(SCC(=O)Nc3nc(-c4ccccc4)c(C)s3)[nH]c(=O)c2C#N)c1	active: 79.4 µM	–
CN(C(=O)c1cc2c(Cl)nc3ccccc3c2s1)c1cccc(C(F)(F)F)c1	inconclusive: 89.1 µM [inhibitor, partial curve, poor fit]	–
CCc1ccccc1N(C)C(=O)Cn1cnc2sc(C)c(S(=O)(=O)N3CCC(C)CC3)c2c1=O	–	inactive: -9.27%
CCCCn1c(=NC(=O)c2cccnc2)c(C#N)cc2c(=O)n3cccc(C)c3nc21	inconclusive: 8.91 µM [inhibitor, partial curve, poor fit]	–
O=C(NCCN1CCN(c2ccccc2)CC1)C1(S(=O)(=O)c2ccc(Cl)cc2)CC1	–	inactive: -23.2%
CC1Cc2cc(/C(O)=C3/C(=O)C(=O)N(CCCn4ccnc4)C3c3ccco3)ccc2O1 (configuration not stated)	inconclusive: 14.1 µM [inhibitor, partial curve, poor fit]	–
O=C(O)c1ccc(N/N=C/c2ccc(-c3cccc(Cl)c3)o2)cc1	active: 79.4 µM	–
Cc1ccc(/C=N/NC(=O)CSc2nc3ccccc3o2)cc1	inconclusive: 28.2 µM [inhibitor, single point]	–
COc1ccc(/C=N\NC(=O)c2cc3c(ccc4ccccc43)o2)cc1O	active: 50.1 µM	–
O=C1C=CC(=O)C(CNc2ccc(C(=O)OCc3ccccc3)cc2)=C1	inconclusive: 35.5 µM [inhibitor, partial curve, poor fit]	–
Cc1oc(-c2ccc(-c3ccccc3)cc2)nc1CN(C)C1CCOC1 (configuration not stated)	inconclusive: 89.1 µM [inhibitor, partial curve, poor fit]	–
CC1(c2ccccc2Cl)NC(=O)N(CC(=O)Nc2ccc(N3CCCCC3)cc2)C1=O (configuration not stated)	inconclusive: 100 µM [inhibitor, partial curve, poor fit]	–

Structure (SMILES)	Potency	activity change, negative = inhibition
COc1cc(/C=C(/C#N)C(=O)Nc2ccccc2)ccc1OCc1ccc(C(=O)O)cc1	active: 79.4 µM	–
Cc1ccc(C(=O)N/N=C/c2ccc(-c3ccccc3[N+](=O)[O-])o2)cn1	inconclusive: 25.1 µM [inhibitor, single point]	–
CN1C(=O)Cc2cc(S(=O)(=O)CCC(=O)Nc3ccc(Cl)c(C(F)(F)F)c3)ccc21	–	inactive: 2.66%
NC(=NCc1ccc2c(c1)OCO2)NC(=O)c1ccccc1	active: 79.4 µM	–
N=C1/C(=C\c2ccc(Br)o2)C(=O)N=C2SC(CC(=O)N3CCCCC3)=NN12	active: 22.4 µM	–
Cc1ccc(C)c(NC(=O)CN(C)C(=O)c2cccc(Oc3ccccc3)c2)c1	–	inactive: -2.68%
CC(=O)OCCCNc1cc(SCc2ccco2)c2nonc2c1[N+](=O)[O-]	active: 22.4 µM	–
O=C(COC(=O)c1ccc([N+](=O)[O-])o1)NC1CCCC1	inconclusive: 56.2 µM [inhibitor, partial curve, poor fit]	–
CCc1ccc2nc(NC(=O)c3ccc4c(=O)[nH]c(CN5CCOCC5)nc4c3)sc2c1	active: 50.1 µM	–
O=C1C=C(O)c2c(O)cc(O)c(O)c2C1=O	active: 1.58 µM	–
O=C(OCc1cc(=O)n2nc(-c3cccs3)sc2n1)c1ccccc1	active: 79.4 µM	–
COc1ccc(NC(=O)CSc2nc(O)cc(=O)[nH]2)c(OC)c1	–	inactive: -7.91%
COc1cc(NC(=O)c2cc3c(C)nc4ccccc4c3o2)cc(OC)c1OC	inconclusive: 12.6 µM [inhibitor, full curve, poor fit]	–
CN1CCN(C2=C(Cl)C(=O)C(c3cnc(N4CCCCC4)s3)=C(Cl)C2=O)CC1	inconclusive: 15.8 µM [inhibitor, partial curve, poor fit]	–
CCOC(=O)Cc1ccc(NC(=O)Nc2cc3c(cc2N2CCCCC2)n(C)c(=O)n3C)cc1	–	inactive: -19.6%
COc1ccccc1CNC(=O)C(NS(=O)(=O)c1ccc2c(c1)OCCO2)C(C)C (configuration not stated)	inconclusive: 39.8 µM [inhibitor, single point]	–
CCN(CC)c1ccc(NC(=O)c2sc3ccccc3c2Cl)cc1	inconclusive: 79.4 µM [inhibitor, partial curve, poor fit]	–
S=c1[nH]nc(-c2cc(-c3ccccc3)n[nH]2)n1/N=C/c1ccc(Cl)cc1	inconclusive: 56.2 µM [inhibitor, partial curve, poor fit]	–
O=[N+]([O-])c1ccc2nc(-c3ccccc3)n(OCc3ccc(Cl)cc3)c2c1	active: 15.8 µM	–
c1cnc2nc3c4ccccc4c4ccccc4c3nc2c1	inconclusive: 22.4 µM [inhibitor, single point]	–
COc1ccc(C2OC34CCCCC3C(C#N)(C#N)C2(C#N)C(=N)O4)cc1 (configuration not stated)	inconclusive: 17.8 µM [inhibitor, single point]	–
